Residue numbers refer to the chain shown, from its start.
What was measured:
[1] = target: CTLA4-muFc (fusion protein of human CTLA4 and mouse Fc) (human); experiment: BLI (Octet K2); anti-human Fc on AHC sensor, CTLA4-muFc diluted in a gradient as analyte; 1:1 model
human CTLA4 protein = target: T1, human CTLA4 protein (human, UniProt P16410 36-161); experiment: assay and target not described in the filing; human CTLA4 presumed
T1 construct: also called hCTLA4; monomeric human CTLA4

Sequence of human CTLA4 protein (P16410 other isoform, or with tags, fused parts or gaps limits assumed): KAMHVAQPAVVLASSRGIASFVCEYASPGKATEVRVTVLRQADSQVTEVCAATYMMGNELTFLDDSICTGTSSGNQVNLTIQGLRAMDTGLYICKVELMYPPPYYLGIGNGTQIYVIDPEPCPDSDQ

B1: 138-Fc (Fc fusion)
chain: QVQLQESGGGSVQAGGSLTLSCAASGYANSNTCMGWFRQAPGKERERVAAISGVGTGTYYADSVKGRFTISRDNGKNTLFLQMNSLKPEDTAMYYCAAAPEGRAWCSRDPSGYNYWGQGTQVTVSSGS[human IgG1 Fc with changes left out here]
notes: also called KN138-Fc
- Kd [1]: 25.3 nM

B2: hu138V2-Ld-Fc (Fc fusion)
chain: QVQLVESGGGLVQPGGSLRLSCAASGYANSNTCMGWFRQAPGKERERVAAISGVGTGTYYADSVKGRFTISRDNSKNTLYLQMNSLRAEDTAVYYCAAAPEGRAWCSRDPSGYNYWGQGTLVTVSS[human IgG1 Fc left out here]
notes: not shown: 'Ld' in the name is not explained
- EC50 (human CTLA4 protein): 0.0346 µg/mL

B3: hu138V3-Ld-Fc (Fc fusion)
chain: B2 chain with L11S, P14A, E44G, R45L
notes: as for B2
- EC50 (human CTLA4 protein): 0.0349 µg/mL

B4: hu138V4-Ld-Fc (Fc fusion)
chain: B2 chain with E44G, R45L
notes: as for B2
- EC50 (human CTLA4 protein): 0.0336 µg/mL

Reference: US20220251207A1 (JIANGSU ALPHAMAB BIOPHARMACEUTICALS, published 2022)
